Article PMC8690885
These are yes or no findings as the source states them, for the method shown. Binding seen in cells or lysates may run through a third protein. Some entries that bind do so weakly or less than the wild type. For some assays here: Sequences can lack the tags named with a protein. Values belong to the substance of their own block, whether it stands above or below them.

Amino acid sequences for entries named in this document (tags omitted).
UniProt P84022: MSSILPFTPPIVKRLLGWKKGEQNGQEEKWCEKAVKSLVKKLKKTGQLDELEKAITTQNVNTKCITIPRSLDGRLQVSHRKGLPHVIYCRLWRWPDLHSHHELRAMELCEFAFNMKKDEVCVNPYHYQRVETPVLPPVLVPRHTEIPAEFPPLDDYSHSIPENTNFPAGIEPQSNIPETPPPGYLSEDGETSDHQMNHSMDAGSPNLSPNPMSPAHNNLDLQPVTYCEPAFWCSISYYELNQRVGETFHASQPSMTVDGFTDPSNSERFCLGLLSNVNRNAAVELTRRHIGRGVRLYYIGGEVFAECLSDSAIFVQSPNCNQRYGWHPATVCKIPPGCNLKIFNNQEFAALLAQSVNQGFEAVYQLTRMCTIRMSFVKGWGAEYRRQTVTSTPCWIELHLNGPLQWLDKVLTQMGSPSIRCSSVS
UniProt Q16665: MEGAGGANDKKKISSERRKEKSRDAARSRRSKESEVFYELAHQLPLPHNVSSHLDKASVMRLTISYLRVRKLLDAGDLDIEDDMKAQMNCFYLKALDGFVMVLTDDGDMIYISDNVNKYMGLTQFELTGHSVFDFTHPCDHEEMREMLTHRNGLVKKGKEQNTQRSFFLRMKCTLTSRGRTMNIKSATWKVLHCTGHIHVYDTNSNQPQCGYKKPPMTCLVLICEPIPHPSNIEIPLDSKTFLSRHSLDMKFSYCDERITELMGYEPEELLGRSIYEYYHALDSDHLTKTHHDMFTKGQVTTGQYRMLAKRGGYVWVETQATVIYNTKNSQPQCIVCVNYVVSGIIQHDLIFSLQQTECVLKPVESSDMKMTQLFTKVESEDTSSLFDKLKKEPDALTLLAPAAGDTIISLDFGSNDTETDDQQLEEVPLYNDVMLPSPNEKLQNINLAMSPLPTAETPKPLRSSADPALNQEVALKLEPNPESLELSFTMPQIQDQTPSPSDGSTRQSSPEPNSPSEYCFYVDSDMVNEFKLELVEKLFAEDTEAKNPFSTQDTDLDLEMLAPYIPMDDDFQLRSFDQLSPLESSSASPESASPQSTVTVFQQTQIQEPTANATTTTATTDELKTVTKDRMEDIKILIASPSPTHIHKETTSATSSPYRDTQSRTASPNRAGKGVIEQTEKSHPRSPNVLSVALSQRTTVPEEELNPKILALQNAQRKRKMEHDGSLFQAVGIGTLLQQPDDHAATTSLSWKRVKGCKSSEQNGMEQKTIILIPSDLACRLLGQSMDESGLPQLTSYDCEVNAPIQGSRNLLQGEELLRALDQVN
UniProt Q16254: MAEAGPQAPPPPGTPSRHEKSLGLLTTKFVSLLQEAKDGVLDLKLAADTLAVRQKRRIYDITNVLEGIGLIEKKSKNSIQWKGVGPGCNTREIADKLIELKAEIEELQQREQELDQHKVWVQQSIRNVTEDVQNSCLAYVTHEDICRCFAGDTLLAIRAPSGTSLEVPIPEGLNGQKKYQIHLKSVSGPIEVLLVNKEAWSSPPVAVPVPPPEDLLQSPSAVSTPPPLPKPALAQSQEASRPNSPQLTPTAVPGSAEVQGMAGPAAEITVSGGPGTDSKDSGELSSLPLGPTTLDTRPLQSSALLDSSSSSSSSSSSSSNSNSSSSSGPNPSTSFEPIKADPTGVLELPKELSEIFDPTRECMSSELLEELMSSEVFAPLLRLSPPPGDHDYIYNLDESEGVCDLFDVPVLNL
UniProt Q15329: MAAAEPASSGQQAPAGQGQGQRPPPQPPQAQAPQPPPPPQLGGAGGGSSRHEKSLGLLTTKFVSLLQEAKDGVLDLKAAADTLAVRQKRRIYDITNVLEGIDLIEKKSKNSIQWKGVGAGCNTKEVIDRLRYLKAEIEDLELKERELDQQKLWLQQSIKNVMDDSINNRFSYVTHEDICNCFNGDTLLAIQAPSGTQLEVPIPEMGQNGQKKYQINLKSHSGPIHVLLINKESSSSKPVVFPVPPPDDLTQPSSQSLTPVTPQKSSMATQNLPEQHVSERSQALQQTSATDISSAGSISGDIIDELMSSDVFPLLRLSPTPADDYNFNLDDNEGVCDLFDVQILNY

Legend:
HA-tagged Smad3 = HA-tagged Smad3 (UniProt P84022); test: co-IP; 293T cells without HIF-1α knockdown, transfected with Flag-tagged genes and HA-Smad3, cultured under hypoxia for 24 h before protein extraction; western blotting
[1] = molecular target: hypoxia-inducible factor (HIF)-1α (human (endogenous in A549 and H1299)) (UniProt Q16665); test: co-IP; endogenous proteins; A549 and H1299 cell lysates immunoprecipitated with the indicated antibodies, Protein A+G Agarose, 4 °C, washed 5 times with PBS, western blotting
Flag-tagged E2F4 [2] = molecular target: Flag-tagged E2F4 (UniProt Q16254); test: condition: only under hypoxia, without HIF-1α knockdown; co-IP; 293T cells without HIF-1α knockdown, transfected with Flag-tagged genes and HA-Smad3, cultured under hypoxia for 24 h before protein extraction; western blotting
Flag-tagged E2F5 [3] = molecular target: Flag-tagged E2F5 (UniProt Q15329); test: as above
Flag-tagged p107 [4] = molecular target: T1, Flag-tagged p107 (UniProt P28749); test: as above
T1 sequence: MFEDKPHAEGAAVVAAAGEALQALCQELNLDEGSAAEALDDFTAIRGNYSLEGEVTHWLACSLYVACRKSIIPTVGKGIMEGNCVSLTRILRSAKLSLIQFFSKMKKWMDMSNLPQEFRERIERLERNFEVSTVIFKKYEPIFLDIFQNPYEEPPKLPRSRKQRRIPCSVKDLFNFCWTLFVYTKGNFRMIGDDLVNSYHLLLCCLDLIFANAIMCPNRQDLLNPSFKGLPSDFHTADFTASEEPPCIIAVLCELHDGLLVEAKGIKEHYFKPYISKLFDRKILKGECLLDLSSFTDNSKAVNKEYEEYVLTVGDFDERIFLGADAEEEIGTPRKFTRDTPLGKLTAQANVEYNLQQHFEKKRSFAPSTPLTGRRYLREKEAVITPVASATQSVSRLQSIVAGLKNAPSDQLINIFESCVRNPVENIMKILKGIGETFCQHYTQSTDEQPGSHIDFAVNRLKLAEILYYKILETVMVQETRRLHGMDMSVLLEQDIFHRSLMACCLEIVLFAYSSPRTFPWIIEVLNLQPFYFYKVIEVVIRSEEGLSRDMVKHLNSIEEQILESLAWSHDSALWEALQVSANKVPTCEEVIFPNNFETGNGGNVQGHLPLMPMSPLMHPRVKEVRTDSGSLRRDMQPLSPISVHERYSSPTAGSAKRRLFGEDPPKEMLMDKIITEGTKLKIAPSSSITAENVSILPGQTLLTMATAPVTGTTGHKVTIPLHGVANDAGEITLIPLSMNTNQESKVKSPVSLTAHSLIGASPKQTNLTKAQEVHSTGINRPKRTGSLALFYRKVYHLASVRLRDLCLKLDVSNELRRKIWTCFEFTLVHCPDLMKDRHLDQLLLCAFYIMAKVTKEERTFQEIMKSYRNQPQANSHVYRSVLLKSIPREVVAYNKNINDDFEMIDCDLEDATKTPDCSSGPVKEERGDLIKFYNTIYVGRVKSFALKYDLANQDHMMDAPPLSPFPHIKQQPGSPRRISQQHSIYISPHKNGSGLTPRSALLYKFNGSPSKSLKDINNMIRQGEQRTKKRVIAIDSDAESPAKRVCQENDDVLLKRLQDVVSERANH

Flag-tagged E2F4 [5] = molecular target: Flag-tagged E2F4 (UniProt Q16254); test: co-IP; 293T cells with HIF-1α knockdown, transfected with Flag-tagged genes and HA-Smad3, cultured under hypoxia for 24 h before protein extraction; western blotting
Flag-tagged E2F5 [6] = molecular target: Flag-tagged E2F5 (UniProt Q15329); test: as above
Flag-tagged p107 [7] = molecular target: T1, Flag-tagged p107; test: as above

binding (HA-tagged Smad3): binds
Substance: HIF-1α (endogenous in 293T cells under hypoxia) (from UniProt Q16665 1-826)

binding [1]: binds
Substance: phosphorylated Smad3 (from UniProt P84022 1-425)

binding (Flag-tagged E2F4 [2]): no binding
binding (Flag-tagged E2F5 [3]): no binding
binding (Flag-tagged p107 [4]): no binding
binding (Flag-tagged E2F4 [5]): binds
binding (Flag-tagged E2F5 [6]): binds
binding (Flag-tagged p107 [7]): binds
Substance: HA-tagged Smad3 (from UniProt P84022 1-425)
